Test results as given in publication PMC11237012, “Synthesis and preliminary evaluation of novel PET probes for GSK-3 imaging” (Scientific Reports, 2024).
This continues a long series; more values of the same kind are listed elsewhere.

Assay: Ex vivo biodistribution
Format: in vivo, wild-type FVB/NJ mice
Description: To further understand the pharmacokinetics of [^18F]2, ex vivo biodistribution was performed with different groups of mice with and without co-administration of 2. Animals were sacrificed at 5 min, 10 min and 120 min post-injection of [^18F]2. Vital organs and tissues were collected and uptake of the [^18F]2 was measured as SUV after counting the radioactivity in each harvested tissue. […] Additionally, observed higher uptake of [^18F]2 in pancreas could potentially be extended to beta cell mass imaging as a separate study. […] Therefore, it would be valuable to evaluate PET [^18F]2 in pathological conditions to finally evaluate its selectivity, binding affinity, and retention in vivo in the presence and absence of self-blocking as a future study.
Uptake of PET probe [^18F]2 (1.40 ± 0.61 MBq) was assessed with and without co-administration of 2 in 10–13-week-old wild-type FVB/NJ mice (The Jackson Laboratory, Bar Harbor, ME) after tail vein injection followed by PET imaging at 5 min, 10 min, 15 min, 20 min, 25 min, 30 min, 40 min, 50 min, 60 min and 120 min post injection. Additionally, ex vivo biodistribution was performed at 5 min, 10 min and 120 min post tail vein injection. To prepare [^18F]2 formulation for injection, 0.76 ± 0.48 µg (2.01 ± 1.27 nmol) of [^18F]2 was formulated in 10% ethanol/ 90% isotonic saline. For the blocking experiment, 20.21 ± 1.63 µg (53.75 ± 4.33 nmol) of 2 in DMSO was added to [^18F]2 (Am of 87.27 ± 77.26 (n = 13) GBq/µmole, having 0.46 ± 0.31 µg or 1.23 ± 0.83 nmol of nonradioactive 2 in it) in the final formulation volume of ~ 100 µL. This study had 12 wild type FVB/NJ male mice with body weight 31.8 ± 2.7 g and 10 wild type FVB/NJ female mice with body weight 27.0 ± 3.6 g at the time of imaging. All the animals were anesthetized for tail vein injection and PET imaging using an induction dose of 3% isoflurane and a maintenance dose of 2–3% isoflurane, which was administered via isoflurane vaporizer. All anesthetized animals were kept warm during imaging using a heat supported imaging chamber. For ex vivo biodistribution studies, animals were sacrificed at 5 min, 10 min and 120 min post-injection by cervical dislocation and tissues were harvested for gamma counting. For PET imaging studies, each animal underwent a 60 min dynamic PET scan (Framing Sequence: 1 × 10 s, 4 × 15 s, 8 × 30 s, 5 × 60 s, 4 × 300 s, 3 × 600 s) immediately post injection followed by 10 min static PET scan at 120 min post-injection on small animal micro-PET/X-ray system, Genesys 4 (Sofie BioSystems, Dulles, VA, USA). The PET images were reconstructed using Genesys 4 imaging software installed on the imaging system. The obtained PET images were visualized and analyzed using image analysis software, “Amide's a medical image data examiner-AMIDE”[53]. PET images were normalized to the standardized uptake value (SUV) where; SUV=ConcentrationofdoseintissueμCi/g×Weightoftheanimal(g)/Injecteddose(μCi).

SUV, Average ± SD (Brain stem, 5 min post-injection, [^18F]2 + 20 µg of 2): 0.66 ± 0.03
SUV, Average ± SD (Brain stem, 5 min post-injection, [^18F]2 alone): 0.81 ± 0.49
SUV, Average ± SD (Brain stem, 10 min post-injection, [^18F]2 + 20 µg of 2): 0.44 ± 0.15
SUV, Average ± SD (Brain stem, 10 min post-injection, [^18F]2 alone): 0.34 ± 0.06
SUV, Average ± SD (Brain stem, 120 min post-injection, [^18F]2 + 20 µg of 2): 0.22 ± 0.04
SUV, Average ± SD (Brain stem, 120 min post-injection, [^18F]2 alone): 0.06 ± 0.03
SUV, Average ± SD (Cecum, 5 min post-injection, [^18F]2 + 20 µg of 2): 0.73 ± 0.03
SUV, Average ± SD (Cecum, 5 min post-injection, [^18F]2 alone): 0.54 ± 0.07
SUV, Average ± SD (Cecum, 10 min post-injection, [^18F]2 + 20 µg of 2): 0.93 ± 0.16
SUV, Average ± SD (Cecum, 10 min post-injection, [^18F]2 alone): 0.54 ± 0.03
SUV, Average ± SD (Cecum, 120 min post-injection, [^18F]2 + 20 µg of 2): 1.79 ± 0.60
SUV, Average ± SD (Cecum, 120 min post-injection, [^18F]2 alone): 4.67 ± 4.60
SUV, Average ± SD (Cerebellum, 5 min post-injection, [^18F]2 + 20 µg of 2): 0.62 ± 0.03
SUV, Average ± SD (Cerebellum, 5 min post-injection, [^18F]2 alone): 0.75 ± 0.49
SUV, Average ± SD (Cerebellum, 10 min post-injection, [^18F]2 + 20 µg of 2): 0.39 ± 0.15
SUV, Average ± SD (Cerebellum, 10 min post-injection, [^18F]2 alone): 0.30 ± 0.05
SUV, Average ± SD (Cerebellum, 120 min post-injection, [^18F]2 + 20 µg of 2): 0.18 ± 0.03
SUV, Average ± SD (Cerebellum, 120 min post-injection, [^18F]2 alone): 0.05 ± 0.02
SUV, Average ± SD (Cortex, 5 min post-injection, [^18F]2 + 20 µg of 2): 0.65 ± 0.02
SUV, Average ± SD (Cortex, 5 min post-injection, [^18F]2 alone): 0.79 ± 0.50
SUV, Average ± SD (Cortex, 10 min post-injection, [^18F]2 + 20 µg of 2): 0.43 ± 0.10
SUV, Average ± SD (Cortex, 10 min post-injection, [^18F]2 alone): 0.32 ± 0.07
SUV, Average ± SD (Cortex, 120 min post-injection, [^18F]2 + 20 µg of 2): 0.19 ± 0.03
SUV, Average ± SD (Cortex, 120 min post-injection, [^18F]2 alone): 0.05 ± 0.03
SUV, Average ± SD (Eyes, 5 min post-injection, [^18F]2 + 20 µg of 2): 0.35 ± 0.05
SUV, Average ± SD (Eyes, 5 min post-injection, [^18F]2 alone): 0.30 ± 0.12
SUV, Average ± SD (Eyes, 10 min post-injection, [^18F]2 + 20 µg of 2): 0.36 ± 0.04
SUV, Average ± SD (Eyes, 10 min post-injection, [^18F]2 alone): 0.20 ± 0.03
SUV, Average ± SD (Eyes, 120 min post-injection, [^18F]2 + 20 µg of 2): 0.29 ± 0.09
SUV, Average ± SD (Feces, 5 min post-injection, [^18F]2 + 20 µg of 2): 0.79 ± 0.17
SUV, Average ± SD (Feces, 5 min post-injection, [^18F]2 alone): 0.36 ± 0.12
SUV, Average ± SD (Feces, 10 min post-injection, [^18F]2 + 20 µg of 2): 1.06 ± 0.21
SUV, Average ± SD (Feces, 10 min post-injection, [^18F]2 alone): 0.51 ± 0.05
SUV, Average ± SD (Feces, 120 min post-injection, [^18F]2 + 20 µg of 2): 3.25 ± 0.96
SUV, Average ± SD (Feces, 120 min post-injection, [^18F]2 alone): 2.77 ± 0.79
SUV, Average ± SD (Hippocampus, 5 min post-injection, [^18F]2 + 20 µg of 2): 0.78 ± 0.06
SUV, Average ± SD (Hippocampus, 5 min post-injection, [^18F]2 alone): 1.14 ± 0.74
SUV, Average ± SD (Hippocampus, 10 min post-injection, [^18F]2 + 20 µg of 2): 0.45 ± 0.18
SUV, Average ± SD (Hippocampus, 10 min post-injection, [^18F]2 alone): 0.47 ± 0.15
SUV, Average ± SD (Hippocampus, 120 min post-injection, [^18F]2 + 20 µg of 2): 0.24 ± 0.09
SUV, Average ± SD (Hippocampus, 120 min post-injection, [^18F]2 alone): 0.08 ± 0.05
SUV, Average ± SD (LI (large intestine), 5 min post-injection, [^18F]2 + 20 µg of 2): 1.47 ± 0.17
SUV, Average ± SD (LI (large intestine), 5 min post-injection, [^18F]2 alone): 1.09 ± 0.45
SUV, Average ± SD (LI (large intestine), 10 min post-injection, [^18F]2 + 20 µg of 2): 1.48 ± 0.31
SUV, Average ± SD (LI (large intestine), 10 min post-injection, [^18F]2 alone): 0.80 ± 0.06
SUV, Average ± SD (LI (large intestine), 120 min post-injection, [^18F]2 + 20 µg of 2): 1.22 ± 0.63
SUV, Average ± SD (LI (large intestine), 120 min post-injection, [^18F]2 alone): 0.57 ± 0.32
SUV, Average ± SD (SI (small intestine), 5 min post-injection, [^18F]2 + 20 µg of 2): 3.12 ± 0.27
SUV, Average ± SD (SI (small intestine), 5 min post-injection, [^18F]2 alone): 1.94 ± 1.12
SUV, Average ± SD (SI (small intestine), 10 min post-injection, [^18F]2 + 20 µg of 2): 3.22 ± 0.15
SUV, Average ± SD (SI (small intestine), 10 min post-injection, [^18F]2 alone): 3.33 ± 0.49
SUV, Average ± SD (SI (small intestine), 120 min post-injection, [^18F]2 + 20 µg of 2): 10.72 ± 1.95
SUV, Average ± SD (SI (small intestine), 120 min post-injection, [^18F]2 alone): 5.22 ± 0.09
SUV, Average ± SD (Thalamus, 5 min post-injection, [^18F]2 + 20 µg of 2): 0.65 ± 0.04
SUV, Average ± SD (Thalamus, 5 min post-injection, [^18F]2 alone): 0.84 ± 0.51
SUV, Average ± SD (Thalamus, 10 min post-injection, [^18F]2 + 20 µg of 2): 0.44 ± 0.10
SUV, Average ± SD (Thalamus, 10 min post-injection, [^18F]2 alone): 0.34 ± 0.07
SUV, Average ± SD (Thalamus, 120 min post-injection, [^18F]2 + 20 µg of 2): 0.20 ± 0.04
SUV, Average ± SD (Thalamus, 120 min post-injection, [^18F]2 alone): 0.05 ± 0.03
Structure (SMILES): O=C(Nc1cnccc1-c1ccc([18F])cc1)c1ccnc(NC(=O)C2CC2)c1 [[^18F]2]
